The supplement of paper PMC4967469

Key:
Assay in all cases: Viability of human cancer cell lines after 72 h of drug (GDSC screen)
LFM-A13 = compound: C/C(O)=C(\C#N)C(=O)Nc1cc(Br)ccc1Br [LFM-A13]; conditions: top dose 16 µM; top dose inferred
Method: (§1)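 Human cancer cell lines in 384-well plates, medium with 10% serum, drug for 72 h over a 256-fold dose range (nine 2-fold or five 4-fold steps up to the top dose). Adherent lines were fixed and stained with the nucleic acid dye Syto60, suspension lines read with resazurin; signal relative to control wells, capped at 0 and 100%. One two-parameter sigmoid per drug and line, fitted in a mixed model over all curves with the slope shared within a line.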

TW-37 = compound: CC(C)c1ccccc1Cc1cc(C(=O)Nc2ccc(S(=O)(=O)c3ccccc3C(C)(C)C)cc2)c(O)c(O)c1O [TW-37]; conditions: top dose 5 µM
Method: as §1

Bicalutamide = compound: CC(O)(CS(=O)(=O)c1ccc(F)cc1)C(=O)Nc1ccc(C#N)c(C(F)(F)F)c1 [Bicalutamide]; conditions: top dose inferred
Method: as §1

AUY922 = compound: CCNC(=O)c1noc(-c2cc(C(C)C)c(O)cc2O)c1-c1ccc(CN2CCOCC2)cc1 [AUY922]; conditions: top dose 0.256 µM; top dose inferred
Method: as §1

KIN001-270 = compound: Cc1ccc(Nc2cc(-c3cccc(N4C(=O)c5ccccc5C4=O)c3)ncn2)cc1NS(C)(=O)=O [KIN001-270]; conditions: top dose 20 µM; top dose inferred
Method: as §1

Nilotinib = compound: Cc1cn(-c2cc(NC(=O)c3ccc(C)c(Nc4nccc(-c5cccnc5)n4)c3)cc(C(F)(F)F)c2)cn1 [Nilotinib]; conditions: top dose 2 µM
Method: as §1

Gemcitabine = compound: Nc1ccn([C@@H]2O[C@H](CO)[C@@H](O)C2(F)F)c(=O)n1 [Gemcitabine]; conditions: top dose 1.024 µM
Method: as §1

T0901317 = compound: O=S(=O)(c1ccccc1)N(CC(F)(F)F)c1ccc(C(O)(C(F)(F)F)C(F)(F)F)cc1 [T0901317]; conditions: top dose 10.24 µM; top dose inferred
Method: as §1

MP470 = compound: S=C(NCc1ccc2c(c1)OCO2)N1CCN(c2ncnc3c2oc2ccccc23)CC1 [MP470]; conditions: top dose 20 µM; top dose inferred
Method: as §1

[1] = top dose 1.024 µM, screen: GDSC drug entry 150
[2] = top dose 10 µM, screen: GDSC drug entry 1502

Cell Line	AUC (LFM-A13)	IC50 (LFM-A13)	AUC (TW-37)	IC50 (TW-37)	AUC (Bicalutamide; [1])	IC50 (Bicalutamide; [1])	AUC (Bicalutamide; [2])	IC50 (Bicalutamide; [2])	AUC (AUY922)	IC50 (AUY922)	AUC (KIN001-270)	IC50 (KIN001-270)	AUC (Nilotinib)	IC50 (Nilotinib)	AUC (Gemcitabine)	IC50 (Gemcitabine)	AUC (T0901317)	IC50 (T0901317)	AUC (MP470)	IC50 (MP470)
SU-DHL-5 (B-cell lymphoma, suspension)	0.992	> 16000 nM	0.373	153 nM	0.994	> 1020 nM	0.87	5620 nM	0.434	11 nM	0.894	13500 nM	0.954	> 2000 nM	0.009	< 4 nM	0.985	> 10200 nM	0.551	1670 nM
COLO-680N (oesophagus, adherent)	0.969	> 16000 nM	0.743	1790 nM	0.983	> 1020 nM	0.983	> 10000 nM	0.577	27 nM	0.982	> 20000 nM	0.985	> 2000 nM	0.464	50.3 nM	0.986	> 10200 nM	0.986	> 20000 nM
SNU-449 (liver, adherent)	0.798	8470 nM	0.537	399 nM	0.981	> 1020 nM	0.977	> 10000 nM	0.532	19.8 nM	0.949	> 20000 nM	0.986	> 2000 nM	0.322	19.3 nM	0.986	> 10200 nM	0.657	3570 nM
451Lu (melanoma, adherent)	0.984	> 16000 nM	0.369	139 nM	0.989	> 1020 nM	0.986	> 10000 nM	0.472	13.4 nM	0.982	> 20000 nM	0.977	> 2000 nM	0.221	10.2 nM	0.977	> 10200 nM	0.937	> 20000 nM
PCI-15A (head and neck, adherent)	0.982	> 16000 nM	0.59	551 nM	0.988	> 1020 nM	0.977	> 10000 nM	0.594	29 nM	0.971	> 20000 nM	0.986	> 2000 nM	0.535	79.9 nM	0.973	> 10200 nM	0.966	> 20000 nM
CAL-62 (thyroid, adherent)	0.976	> 16000 nM	0.531	378 nM	0.988	> 1020 nM	0.985	> 10000 nM	0.528	19 nM	0.985	> 20000 nM	0.935	> 2000 nM	0.147	5.52 nM	0.982	> 10200 nM	0.976	> 20000 nM
WM793B (melanoma, adherent)	0.963	> 16000 nM	0.514	342 nM	0.984	> 1020 nM	0.958	> 10000 nM	0.281	3.56 nM	0.972	> 20000 nM	0.956	> 2000 nM	0.241	10.4 nM	0.982	> 10200 nM	0.974	> 20000 nM
SAT (head and neck, adherent)	0.959	> 16000 nM	0.585	608 nM	0.974	> 1020 nM	0.936	> 10000 nM	0.736	112 nM	0.956	> 20000 nM	0.816	> 2000 nM	0.932	> 1020 nM	0.975	> 10200 nM	0.975	> 20000 nM
COLO-678 (large intestine, semi-adherent)	0.969	> 16000 nM	0.791	3010 nM	0.984	> 1020 nM	0.98	> 10000 nM	0.802	171 nM	0.985	> 20000 nM	0.981	> 2000 nM	0.955	> 1020 nM	0.982	> 10200 nM	0.985	> 20000 nM
Ca9-22 (head and neck, adherent)	0.973	> 16000 nM	0.247	62.3 nM	0.989	> 1020 nM	0.982	> 10000 nM	0.479	14.1 nM	0.985	> 20000 nM	0.981	> 2000 nM	0.203	9.27 nM	0.971	> 10200 nM	0.948	> 20000 nM
CP50-MEL-B (melanoma, adherent)	0.986	> 16000 nM	0.293	81.9 nM	0.983	> 1020 nM	0.98	> 10000 nM	0.673	48.2 nM	0.98	> 20000 nM	0.975	> 2000 nM	0.958	> 1020 nM	0.975	> 10200 nM	0.789	8700 nM
HOP-92 (large cell lung carcinoma, adherent)	0.973	> 16000 nM	0.449	222 nM	0.984	> 1020 nM	0.976	> 10000 nM	0.671	52.1 nM	0.953	> 20000 nM	0.982	> 2000 nM	0.82	711 nM	0.984	> 10200 nM	0.981	> 20000 nM

A lower IC50 marks a more sensitive line; fits outside the tested doses are given as limits. AUC, from the same fit, is the share of area under the viability curve across the 256-fold dose range; it is 1 without any effect and falls as sensitivity rises. For part of these data: The top dose, if marked as inferred, is not printed in the source and was worked back from the curve model. For part of these data: Drugs with an entry number were screened twice under separate entries, and the two screens often disagree.
